# Assay results published in PubChem BioAssay AID434955 (Southern Research Specialized Biocontainment Screening …, 2010).
# The other results are listed elsewhere or left out. Shown are side measurements of this screen, not its main read-out; they come without a call. Compounds called inactive in the main read-out are mostly missing here.
# Assay: beta-lactam sensitization of Mtb H37Rv, H37Rv (AID 434955);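 note: growth measured after seven days incubation then overnight dye step; 0% = bacteria only wells and 100% = bacteria with antibiotic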
# Details: M. tuberculosis H37Rv growth with meropenem, percent inhibition; measured here: primary screen without meropenem; at 25 µM
row,SMILES,inhibition [%]
1,O=c1oc(-c2ccccc2)nc2sc3c(c12)CCC3,36.8
2,Cn1c(C(=O)NCCN2CCOCC2)cc2c(=O)n(C)c3ccccc3c21,-0.81
3,COc1ccc(NC(=O)c2ccc3c(c2)C(=O)N(CC2CCCO2)C3=O)cc1O (stereo not drawn),-20.6
4,O=C(CC(=O)c1ccccc1)Nc1ccc2c(c1)OCCO2,33.6
5,Cc1cc(C)cc(NS(=O)(=O)c2ccc3c(c2)C(C)(C)C(=O)N3C)c1,-7.19
6,CNC(=O)c1c(NC(=O)c2ccco2)sc2c1CCC2,8.18
7,Cn1cccc1/C=C1\C(=O)NC(=O)N(Cc2ccccc2)C1=O,3.31
8,COc1ccccc1N1CCN(S(=O)(=O)c2c(C)[nH]c(C)c2C(=O)N2CCCC2)CC1,-5.69
9,CCC(=O)Nc1cccc(-c2ccc(N3CCN(C)CC3)nn2)c1,0.04
10,COC(=O)Nc1c(-c2ccccc2)nc2ccccn12,8.08
11,COc1cccc(NS(=O)(=O)NC(=O)c2c[nH]c3ccccc23)c1,0.41
12,COc1ccc(S(=O)(=O)NCc2csc(C)n2)cc1OC,1.35
13,O=C1CCC(C(=O)N2CCCCO2)CN1Cc1ccc(Cl)cc1 (stereo not drawn),-10
14,O=C(NC1CCS(=O)(=O)C1)c1ccc(S(=O)(=O)N2CCCC2)cc1 (stereo not drawn),2.55
15,COc1ccc(/C=C/c2cc(=O)c3cc(Cl)ccc3o2)cc1,74.9
16,COc1cc(C2=NOC(C(=O)NCc3ccc(F)cc3)C2)cc(OC)c1OC (stereo not drawn),-4.03
17,Cc1ccc(C(C)C)c(OCc2ccc(C(=O)N/N=C/c3ccc(O)c(O)c3)cc2)c1,-3.22
18,Cn1nc(-c2ccccc2F)c2cc(C(=O)N3CCN(C(=O)c4ccco4)CC3)sc21,28.1
19,CC(=O)c1cc2c(cc1NC(=O)CN1Cc3ccccc3C1=O)OCO2,0.23
20,CCn1c(SCC(=O)N2CC(C)OC(C)C2)nc2c([nH]c3ccccc32)c1=O (stereo not drawn),5.37
21,COc1ccc(S(=O)(=O)N2CCOCC2)cc1C(=O)Nc1ccc2c(c1)OCO2,5.15
22,CC(=O)Nc1ccc(SCC(=O)N(CCC#N)c2cc(C)cc(C)c2)cc1,-1.3

row,SMILES,inhibition [%]
1,Cc1nc2nc3c(c(=O)n2[nH]1)CCC3,-2.58
2,CC1CCc2nn(CC(=O)Nc3ccc(F)cc3F)cc2C1 (stereo not drawn),-11.6
3,Cc1ccccc1-c1ccc(Nc2ccc(C(=O)N3CCOCC3)cc2)nn1,12.2
4,O=C(O)c1ccc(Nc2ncnc3ccccc23)cc1,1.33
5,CC(=O)c1ccc(CCCC(=O)O)cc1,-6.03
6,CCCCc1nc2cc(C(=O)NCCc3cnn(C)c3)ccc2o1,0.28
7,CCOc1ccc(/C=N/n2c(C3CCCCC3)n[nH]c2=S)cc1,4.46
8,Fc1ccc(-c2csc(NC(=S)Nc3ccccc3)n2)cc1,9.44
9,CCCCOC(=O)CSc1nnc(N)s1,-6.9
10,Cc1ccc(C(=O)NN2C(=O)/C(=C/c3cccn3C)SC2=S)cc1,5.45
11,Cc1cc(OCc2cc(C(=O)NCc3cc(C(C)C)no3)no2)cc(C)c1Cl,5.68
12,CCOC(=O)C1(c2ccccc2)CCN(CC(=O)Nc2cccc3ccccc23)CC1,5.62
13,CCCCCNCc1cccc(Br)c1,-8.36
14,O=C(CN1C(=O)COc2ccc(Cl)cc21)Nc1ccc2c(c1)OCCO2,-2.91
15,COc1cc(CO)cc(Br)c1OCC(=O)N1CCCCC1,-3.01
16,O=C(NC(c1ccccc1)c1c(O)ccc2ccccc12)c1ccccc1Cl (stereo not drawn),4.48
17,CCn1c(=O)cc(SCC(=O)NCCCN2CCN(c3ccccc3F)CC2)c2ccccc21,3.02
18,Cc1cc(C)n(CCCNCC(O)c2ccccc2)n1 (stereo not drawn),-3.05
19,O=C(NCCC1=CCCCC1)c1ccc(Cl)c([N+](=O)[O-])c1,43.4
20,CCOC(=O)c1[nH]c(C)c(C(=O)c2ccc(C)cc2)c1C,1.18
21,CC(=C/c1ccccc1)/C=N/Nc1nc(N2CCCCC2)nc(N2CCCCC2)n1,77.7
22,Cc1nn(Cc2ccccc2)c(Cl)c1C(=O)OCC(=O)NC(=O)NC12CC3CC(CC(C3)C1)C2,3.45

row,SMILES,inhibition [%]
1,C=C(C)Cn1c(N(CCO)Cc2ccccc2)nc2c1c(=O)[nH]c(=O)n2C,-7.88
2,c1ccc2nc(-c3nc4ccccc4o3)ccc2c1,27.5
3,O=c1[nH]c(/C=C/c2cccc(Br)c2)nc2ccccc12,9.9
4,CCOC(=O)Cc1csc(N/N=C\c2ccc(N(C)C)cc2)n1,-6.97
5,Cc1nn(-c2ccccc2)c2nc(N)c(C#N)c(-c3ccc(O)c(O)c3)c12,5.12
6,CCOc1ccccc1-n1c(N)c(C(N)=O)sc1=S,-6.15
7,CCO[C@H]1OC(C(=O)NCc2nc3ccccc3[nH]2)=C[C@@H](c2cn(C(C)=O)c3ccccc23)[C@@H]1CCCO,18.8
8,COc1ccc(N(CC(=O)N2c3ccccc3CC2C)S(=O)(=O)c2c(C)noc2C)cc1 (stereo not drawn),-1.26
9,CCCNC(=O)N[C@@H](CCSC)C(=O)OC,3.02
10,COCCNC(=O)c1cn(C)c(=O)c2cc(OC)c(OC)cc12,2.41
11,Cc1ccc2[nH]cc(CCNC(=O)Nc3ccccc3)c2c1,-0.74
12,CN1CCN(c2ccccc2NC(=O)c2ccc(-c3ccc(Cl)c(Cl)c3)o2)CC1,5.01
13,COc1ccc(NC(=O)C(Cc2ccccc2)n2cccc2)c(OC)c1 (stereo not drawn),46
14,COc1ccc(C(=O)Nc2oc(-c3ccccc3)c(-c3ccccc3)c2C#N)cc1OC,33.9
15,Cc1cccc(/C=C/c2onc(C)c2S(=O)(=O)N2CCC(C(=O)NC(C)C)CC2)c1,-9.58
16,COc1ccc(CCN(Cc2cc3cccc(C)c3[nH]c2=O)C(=O)NC2CCCCC2)cc1OC,-5.94
17,CCc1ccccc1-n1nnnc1SCC(=O)Nc1ccc(N2CCN(C)CC2)cc1,53.4
18,CCCOC(=O)C1C2C=CC3(CN(c4cccc(Cl)c4)C(=O)C13)O2 (stereo not drawn),-1.6
19,Cc1ccc(CN2CC34C=CC(O3)C(C(=O)NCc3ccco3)C4C2=O)cc1 (stereo not drawn),-4.16
20,COc1ccc(-c2nnc(SCC(=O)NC(C)c3ccccc3)o2)cc1 (stereo not drawn),0.93
21,COC(=O)/C=C1/S/C(=N/N=C/c2ccc(N(C)C)cc2)NC1=O,-3.82
22,CC1CCc2c(sc(NC(=O)c3ccc(Cn4cc(Br)cn4)o3)c2C(N)=O)C1 (stereo not drawn),3.93

row,SMILES,inhibition [%]
1,Cn1nc(-c2ccc(C(=O)Nc3cccnc3)cc2)c2ccccc2c1=O,4.1
2,CCOc1ccccc1CN1CCNC(=O)C1CC(=O)NCCc1ccccn1 (stereo not drawn),0.15
3,CCn1c(SCC(=O)NC2CC2)nnc1-c1ccc(C)cc1,-8.79
4,O=C(Nc1cccc(C(F)(F)F)c1)C1(c2ccccc2)CC1,-7.44
5,CC(=O)c1ccc(OC(=O)N(c2ccccc2)c2ccccc2)cc1,45.5
6,CC1Cc2ccccc2N1C(=O)c1cccnc1 (stereo not drawn),-0.27
7,CC1CCCCN1S(=O)(=O)c1ccc(C(=O)Nc2ccccc2-c2nc3ccccc3[nH]2)cc1 (stereo not drawn),-7.63
8,Cc1cccc(N(C)S(=O)(=O)c2ccc3c(c2)CCC(=O)N3)c1,-2.29
9,CN(C)S(=O)(=O)c1c(Cl)cccc1Cl,-11.2
10,CCCC(=O)NCCCc1nc2ccccc2n1CCC,-0.67
11,COc1cc(C(=O)COC(=O)c2cnc(C)cn2)ccc1OC(F)F,-9.51
12,CSCCC(NC(=O)c1ccco1)C(=O)OCC(=O)Nc1sccc1C#N (stereo not drawn),-7.44
13,CCOC(=O)c1[nH]c(C)c(/C(O)=C2\C(=O)C(=O)N(CCN(C)C)C2c2ccc(C)o2)c1C (stereo not drawn),2.75
14,CCCC(=O)Nc1ccc(C(=O)Nc2nnc(COC)s2)cc1,-8.87
15,Clc1ccccc1Nc1ncnc2c1nnn2Cc1ccccc1,3.84
16,CN1C/C(=N\S(=O)(=O)c2ccccc2)N(C)C1=O,38
17,Cc1ccnc(SCCn2c(N3CCC(C)CC3)nc3c2c(=O)n(C)c(=O)n3C)n1,-4.45
18,CCOC(=O)N1CCN(C(=O)c2cc(COc3cccc(C(C)=O)c3)on2)CC1,1.88
19,Cc1cc(OCC(=O)O)c2ccccc2n1,-2.82
20,O=C(/C=C/c1ccc([N+](=O)[O-])cc1)NCCSc1ccccc1,2.6
21,COc1ccc(CN2C(=O)c3cccnc3C2=O)cc1S(=O)(=O)N1CC(C)Oc2ccccc21 (stereo not drawn),-4.18
22,Cc1onc(-c2c(Cl)cccc2Cl)c1/C(N)=N/OC(=O)C1CC1,39.6

row,SMILES,inhibition [%]
1,O=C1CC(=O)Nc2cc(S(=O)(=O)Nc3ccc(F)cc3Cl)ccc2N1,-6.64
2,Cc1ccc(NC(=O)/C=C/C(=O)O)c([N+](=O)[O-])c1,-1.32
3,COC(=O)CCN1CCC(C(N)=O)CC1,-7
4,CN1C(=O)SC(Nc2ccccc2C(=O)O)C1=O (stereo not drawn),-2.27
5,CSc1ccc(C2C(C#N)=C(N)Oc3c2ccc(=O)c2c(C)oc(C)c32)cc1 (stereo not drawn),42.4
6,COc1ccc(CNC(=O)c2ccc(CS(=O)(=O)c3ccc(Br)cc3)o2)cc1,5.16
7,Cc1sc2ncnc(SCC(=O)NC3CC3)c2c1C,-2.24
8,COC1CCN(Cc2c(C(=O)N3CCc4ccccc4C3)nc3ccc(Cl)cn23)CC1,-3.21
9,CC(=O)c1cccc(OCc2cc(C(=O)NC(C)Cc3cccnc3)no2)c1 (stereo not drawn),0.93
10,CCOc1ccc(Cn2nnc(C(=O)Nc3cc(C)cc(C)c3)c2N)cc1,-16
11,O=C(Nc1cccc(-c2cccc(Cl)c2)c1)C1CCN(Cc2ccc(CO)o2)CC1,6.27
12,CC(=O)c1sc(N/N=C\c2ccc(Br)cc2)nc1C,1.07
13,CCOc1ccc(-c2nc(CN3CCCC(C(=O)N4CCOCC4)C3)c(C)o2)cc1 (stereo not drawn),2.65
14,CCOC(=O)N1CCN(C(=O)CSCC(=O)Nc2nc(-c3ccc(Cl)s3)cs2)CC1,-7.59
15,Cc1nnsc1C(=O)NC1CCCc2c1cnn2-c1ccc(C(C)(C)C)cc1 (stereo not drawn),99
16,Cc1ccc(C)c(N2CCN(CCCNC(=O)Cn3cc4c(n3)CCC(C)C4)CC2)c1 (stereo not drawn),3.03
17,Cc1ccc(C(=O)N/C(=C\c2ccc(-c3ccc(Cl)cc3)o2)C(=O)NCCCN(C)C)cc1,-5.89
18,O=C(CN1C(=O)c2cccnc2Oc2ccc(Cl)cc21)NCCCc1ccccc1,6.53
19,COc1cccc(C(=O)Oc2ccc3c(C)cc(=O)oc3c2C(C)=O)c1,0.56
20,COc1ccc(C(=O)Nc2ccccc2C(=O)NCCN2CCOCC2)cc1OC,4.9
